# Variants at the background level are over-represented here.
# B1: TPR 5TU (parent)
# chain: GGAUCUUCUCGAUCUAACAAAAAAGACAAAUCUGCCACAAAGCUUGAGAGCAUCUUCGGAUGCAGAGGCGGCAGCCUUCGGUGGCGCGAUAGCGCCAACGUUCUCAACUAUGACACGCAAAACGCGUGCUCCGUUGAAUGGAGUUUAUCAUG
# Variants of: B1
# Assay: polymerase ribozyme fitness, log enrichment relative to wild type (log ratio); higher = more active; in vitro selection for triplet polymerase activity
# Procedure, shortened: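 Mutant libraries of each subunit of a heterodimeric triplet polymerase ribozyme were built by PCR and transcribed. Each library went through one round of in vitro selection in triplicate: annealing with biotinylated primer, partner subunit and triplets, frozen incubation at −7 °C, gel excision of extended constructs, streptavidin-bead capture and RT-PCR. Input and output libraries were Illumina-sequenced; only genotypes with ≥10 input reads and ≥1 read per output were kept. Fitness is log2(genotype enrichment/wild-type enrichment), using inverse-variance-weighted replicate averages.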
row,Variant,polymerase ribozyme fitness (log ratio)
1,GGGUCUUCUCGAUCUAACAAAAAAGACAGAUCUGCCACGAAGCUUGAGAGCAUCUUCGGAUGCAGAGGCGGCAGCCUUCGGUGGCUCGAUAGCGCCAAGGUUCUCAACUAUGACACGCAAAACGCGUGCUCCGUUGAAUGGAGUUUAUCAUG [A3G A29G A39G G86U C99G],≤ -4.2
2,GGCUCUUCUCGAUCUAACAAAAAAGACAAAUCUGCCACAAAGCUAGAGAGCAUCUUCGGAUGCAGAUGCGCCAGCCUUCCGUGGCGCGAUAGCGACAACGUUAUCAACUAUGACACGCAAAACGCGUGCUCCGUUGAAUGGAGUUUAUCAUG [A3C U45A G67U G71C G80C C95A C103A],≤ -4.2
3,GGGUCUUCUCGAUCUAACAAAAAAGACAAAUCUGCCACAAAGCUUGAGAGCAUCUUCGGAUGCCAAGGCAGCAGCCUUCGGCGACGCGAUAGCGCCAACGUUCUCAACUAUGACACGCAAAACGCGUGCUCCGUUGAAUGGAGUUUAUCAUG [A3G A64C G65A G70A U82C G84A],≤ -4.2
4,GGGUCUUAUCGAUCUAACAAAAAAGACAAAUCUGCCACAAAGCUUGAGAGUAUCUUCGGAUGCAGAGGCGGCAGCCUUCGGUUGCGCGAUAGCGCCUACGUUCUUAACUAGGACACGCAAAACGCGUGCUGCGUUGAAUGGAGUUUAUUAUG [A3G C8A C51U G83U A97U C105U U111G C131G C149U],≤ -4.2
5,GGCUCUUCACGAUCUAACAAAAAAGACAAUUCUGCCACAAAGCUUGAAAGCAAUUUCGGAUGCAGAUGCGGCAGCCUUCGGUGGCGCGAUAGGGCCAACGUUCUCAACUAUGACACGCAAAACGCAUGCUCCGUGGAAUGGAGUUUAUCAUG [A3C U9A A30U G48A U53A C54U G67U C93G G126A U135G],≤ -4.2
6,GGGUCUUCUCGAUCUAACAAAAAAGACAAAUCUGCCACAAAGCUUGAGAGCAUCUUCGGAUGCAGAGGCGGCAGCCUUCGGUGGCGCGAUAGCGCCAACGUUCUCAACUAUGGCACGGAAAACGCGUGCUCCGUUGAAUGGAGUUUAUCAUG [A3G A113G C118G],-3.65
7,GGCUCUUCUCGAUCUAACAAAAAAGACAAAUCUGCCACAAAGCUUGAGAGCAACGUGGGAUGCGGAGGCGGCAGCCUUCGGUGGGGCGAUAGCGCCAACGUUCUCAACUAUGACACGCAAAACGCGUGCUCCGUUGAAUGGAGUUUAUCAUG [A3C U53A U55G C57G A64G C85G],≤ -4.2
8,GGGUCUUCUCGAUCUAACAUAAAAGAAAAAUCUGCCACAAAGCUUGAGAGCAUCUUCCGCUGCAGAGGCGGCAGCCUGCGGUUGCGCGAUAGCACCAACGUUCUCAACUAUGACACGCAAAACGCGUGCUCGGUUGAAUGAAGUUUAUCAUG [A3G A20U C27A G58C A60C U78G G83U G94A C132G G141A],≤ -4.2
9,GGGUCUUCUAGAUCUAACAAAAAAGACAGAUCUGCCACAAAGCUUGAGAGCAUCUUCGGAUGCAGAGGCGGCAGCCUUCGGGGACGCGAUAGCGCCAACGUUCUCAACUAUGACACGCAAAACGCGUGCUCCGUUGGAUGGAGUUUAUCAUG [A3G C10A A29G U82G G84A A137G],≤ -4.2
10,GGGUCUUCUCGAUCUAAUAAAAAAGACAAAUCUGCCACAAAGCUUGAGAGCAUCUGCGGAUGCAGAGGCGGCAGCCUUCGGUGGCGCGAUAGCACCAACGUUCUCAACUUUGACACGCAAAACGCGUGCUCCGUUGAUAGGAGUUUAUCAUG [A3G C18U U56G G94A A110U A138U U139A],≤ -4.2
11,GGGUCUUCUCGAUCUAACAAAAAAGACAAAUCUGCCACAAAGCUUGAGCGUAUCUUCGCAUGCAGAGGCGGCAGCCUUCGGUGGCGCGAUAGCGUCAACGUUCUCAACUAUGACACGCAAAACGCGUGCUGCGUUGAAUGGAGUUUAUCAUG [A3G A49C C51U G59C C95U C131G],≤ -4.2
12,GGCUCUUCUCGAUCUAACAAAAAAGACAAAUCGGCCACAAAGCUUGAGAGCCGCUUCGGAUGCAGAGGCGGCAGCCUUCGGUGGCGUGAUAGCGCCAACGUUCUCAACUAUGACACGCAAAACGCGUGCUCCGUUGAAUGGAAUUUAUCAUG [A3C U33G A52C U53G C87U G143A],≤ -4.2
13,GGCUCUUCUCGAUCUAACAAAAAAGACAAAUCUGCCACAAAGCAUGAGAGCAUCUUCGGAUGCAGAGGCGGCAGCCUUCGGUGGCGCGAUAGUGCCAAGGUUCUCAACUAUGACACGCAAAACGCGUGCUUCGUUAAAAGGAGUUUAUCAUG [A3C U44A C93U C99G C131U G136A U139A],≤ -4.2
14,GGGUCUUCUCGAUCUAAAAAAAAAGACAAAUCUGCCACAAAGCUUGAGAGCAUCUUCGGAUGCAGAGGCGGCAGCCUUCGGUGGCGCGAUAGGGCCAACGUUCUCAACUAUGACACGCAAAAUGCGUGCUUCGUUGAAUGGAGUUUAUCAUG [A3G C18A C93G C123U C131U],-1.32
15,GGCUCUGCUCGAUCUACCAAAAAAGACAAAUCUGCCACAAAGCUUGAGAGCAUGUUCGGAUGCAGAAGCGGCAGCCCUCGGUGGCGAGAUAGCGCCAAUGUUCUCAACUAUGACACGCAAAACGCGUGCGCCGUUGAAUGGAGUUUAUCAUG [A3C U7G A17C C54G G67A U77C C87A C99U U130G],≤ -4.2
16,GGGUCUUCUCGAUCUAACAAAAAAGACAAAUCUGCCACGAAGCUUGAGAGCAUCUUCGGAAGCAGAGACGGCAGCCUUCGGUGGCGCGAUAGUGCCAACGUUCUCAACUAUGACACGCAAAACGCGUGCUCCGUUGAAUGGAGUUUAUCAUG [A3G A39G U61A G68A C93U],≤ -4.2
17,GGCUCAUCUCGAUCUGACAAAAAAGACAAAUCUGCCACAAAGCUUGAGAACAUCUUCGGAUGCAGAGGCGGCAGCCUUCGGUGGCGCGAUCGCGCCAACGUUCUCAACUAUGACACGCAAAACGCGUGCUCCGUUGAAUGGAGUUUAUCAUG [A3C U6A A16G G50A A91C],≤ -4.2
18,GGGUCUUGUCGAUCUAACAAAAAAGACAAAUCUGCCACAAAGCUUGAGAGCAAUUUCGGAUGCAGAGGCGGCAGCCUUCGGUGGCGGGUUAGCUCCGACGUUCUCAACUAUGACGCGCAAAACGCGUGCUCCGUUGAAUGGAGUUUAUCAUG [A3G C8G U53A C54U C87G A89U G94U A97G A115G],≤ -4.2
19,GGCUCUUCUCGAUCUAACAAAAAAGACAAAUCUGCCACAAAGCUUGAGAGCAUCUUCGGAUGCAGAGGCGGCAGCCUGCGGUGGCGCGAUAGCACCUACGUUCUCAACUAUGACACGCAAAACGCGUGCUCCGUUGAAUGGAGUUUAUCAUG [A3C U78G G94A A97U],≤ -4.2

# Reference: the RNAGym collection of RNA variant scans (doi:10.1073/pnas.2313332121)
